Measured values published in patent US20240368258A1 (RUTGERS THE STATE UNIVERSITY OF NEW JERSEY, published 2024).

Target: T1, EphA5 expressed on H460 human lung carcinoma cells (human, UniProt P54756 25-1037)
T1 construct: whole, on cells; H226 cells served as the EphA5-negative cell line; also called native EphA5 target; endogenous EphA5 expressed on the cell surface
Experiment: whole cell phage-ELISA, monovalent phage on H460 cells
Method: Single scFv clones were produced as monovalent phage and tested for binding on H460 human lung carcinoma (EphA5 positive) and H226 human lung squamous cell carcinoma (EphA5 negative) cell lines in vitro. Briefly, cells were seeded on 96-well plate, blocked and incubated with phage displaying the scFv of interest at different concentrations. After washing, cell surface bound phage were detected with the antiM13-HRP conjugated mAb (GE).

T1 sequence (P54756 25-1037): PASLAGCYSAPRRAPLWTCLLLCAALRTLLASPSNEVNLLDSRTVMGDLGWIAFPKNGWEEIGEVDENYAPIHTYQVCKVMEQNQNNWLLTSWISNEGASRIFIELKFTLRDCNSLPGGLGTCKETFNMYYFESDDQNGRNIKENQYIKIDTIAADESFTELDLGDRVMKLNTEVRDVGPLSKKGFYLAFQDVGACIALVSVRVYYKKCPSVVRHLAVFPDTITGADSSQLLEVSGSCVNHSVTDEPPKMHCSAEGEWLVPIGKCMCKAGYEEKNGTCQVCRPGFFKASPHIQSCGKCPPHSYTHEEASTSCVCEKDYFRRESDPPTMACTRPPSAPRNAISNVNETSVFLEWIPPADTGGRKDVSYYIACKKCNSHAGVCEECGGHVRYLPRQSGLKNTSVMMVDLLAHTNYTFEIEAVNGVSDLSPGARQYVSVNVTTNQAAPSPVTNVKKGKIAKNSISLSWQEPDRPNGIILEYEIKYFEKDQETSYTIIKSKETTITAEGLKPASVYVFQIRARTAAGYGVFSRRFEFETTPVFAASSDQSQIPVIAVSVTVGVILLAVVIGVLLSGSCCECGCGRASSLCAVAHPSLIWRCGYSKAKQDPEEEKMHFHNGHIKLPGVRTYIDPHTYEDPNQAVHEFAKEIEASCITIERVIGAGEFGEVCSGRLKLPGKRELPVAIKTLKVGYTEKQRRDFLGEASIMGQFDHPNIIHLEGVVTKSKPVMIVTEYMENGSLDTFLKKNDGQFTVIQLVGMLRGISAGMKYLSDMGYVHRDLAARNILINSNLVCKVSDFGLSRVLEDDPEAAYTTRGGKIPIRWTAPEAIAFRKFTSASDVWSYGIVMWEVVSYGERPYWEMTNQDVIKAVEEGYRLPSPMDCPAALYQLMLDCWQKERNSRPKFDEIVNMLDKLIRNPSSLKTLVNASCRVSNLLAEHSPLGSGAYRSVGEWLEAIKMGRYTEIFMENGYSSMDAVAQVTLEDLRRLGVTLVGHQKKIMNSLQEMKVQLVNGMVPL

- binding result: binds
B1: antiEphA5_E31 scFv (scFv)
scFv: SYELIQPPSVSVAPGQTARITCGGSNIRSKSVHWYQQKPGQAPVLVVYDDSDRPSGIPERFSGSNSGNTATLTISRVEAGDEADYYCQVWDSSSDHWVFGGRTKVTVLSGGSTTTSYNVYYTKLSSSGT[about 100 residues left out here]HAAAGDYWGQGTLVTVSS
